Here are results for 57 compounds from paper PMC4336329 (PLoS ONE, 2015).

The campaign covered roughly 310,000 compounds. About 14,000 (4.5%) showed an effect of 50% or more. Effects have a minus sign here. The list shows a part of the results.
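Note: peak tail current of the secondary pulse compared with the same well before compound.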

The assay deals with human ether-à-go-go-related gene (hERG) potassium channel (human, UniProt Q12809). Description: primary screen, population patch clamp on CHO cells stably expressing hERG.
human ether-à-go-go-related gene (hERG) potassium channel, sequence (Q12809 whole entry, looked up): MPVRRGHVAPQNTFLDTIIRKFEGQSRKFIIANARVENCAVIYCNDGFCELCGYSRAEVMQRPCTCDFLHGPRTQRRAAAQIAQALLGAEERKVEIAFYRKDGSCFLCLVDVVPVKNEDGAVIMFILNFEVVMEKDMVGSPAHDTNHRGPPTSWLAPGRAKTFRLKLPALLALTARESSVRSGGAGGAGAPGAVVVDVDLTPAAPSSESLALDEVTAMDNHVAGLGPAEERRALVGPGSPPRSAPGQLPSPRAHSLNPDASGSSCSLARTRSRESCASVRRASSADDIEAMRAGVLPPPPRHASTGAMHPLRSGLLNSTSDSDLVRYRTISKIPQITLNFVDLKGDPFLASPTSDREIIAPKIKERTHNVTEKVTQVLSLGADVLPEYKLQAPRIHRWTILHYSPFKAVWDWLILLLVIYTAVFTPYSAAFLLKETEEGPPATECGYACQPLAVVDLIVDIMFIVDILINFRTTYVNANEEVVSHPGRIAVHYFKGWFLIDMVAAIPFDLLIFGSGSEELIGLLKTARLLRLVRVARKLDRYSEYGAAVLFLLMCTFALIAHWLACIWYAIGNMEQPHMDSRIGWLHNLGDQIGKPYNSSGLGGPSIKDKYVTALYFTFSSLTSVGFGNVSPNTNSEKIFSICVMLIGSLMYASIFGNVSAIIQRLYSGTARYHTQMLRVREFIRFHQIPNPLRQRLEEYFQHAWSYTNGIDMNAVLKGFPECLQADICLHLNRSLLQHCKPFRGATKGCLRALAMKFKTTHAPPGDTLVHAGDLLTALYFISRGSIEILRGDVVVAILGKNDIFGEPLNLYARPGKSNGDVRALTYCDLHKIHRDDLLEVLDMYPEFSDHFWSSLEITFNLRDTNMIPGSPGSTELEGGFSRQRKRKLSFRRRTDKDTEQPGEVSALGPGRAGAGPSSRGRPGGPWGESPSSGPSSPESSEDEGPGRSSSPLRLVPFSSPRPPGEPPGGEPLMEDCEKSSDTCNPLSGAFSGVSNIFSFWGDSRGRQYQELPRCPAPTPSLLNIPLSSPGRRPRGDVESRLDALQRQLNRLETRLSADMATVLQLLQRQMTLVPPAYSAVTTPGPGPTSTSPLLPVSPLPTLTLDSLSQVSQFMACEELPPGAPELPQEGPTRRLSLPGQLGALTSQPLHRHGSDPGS
`COc1ccc(OC)c(C2C(C#N)=C(N)N(N(C)C)C3=C2C(=O)CC(C)(C)C3)c1` (stereo not drawn): the “hERG current change (%, negative = inhibition) at 10uM” value worked out at 1.73%.
On to `COc1ccc(-n2nc([N+](=O)[O-])c(=NC3CCN(Cc4ccccc4)CC3)n2O)cc1`, for which the “hERG current change (%, negative = inhibition) at 10uM” value was -39.8%.
For the compound `O=C(OCC(=O)N1CCCc2ccccc21)c1ccc(Br)o1`, the “hERG current change (%, negative = inhibition) at 10uM” value is 0.832%.
Consider `CC(=O)c1ccc(OCc2ccc(Oc3c(Cl)cccc3[N+](=O)[O-])cc2)cc1`, for which the “hERG current change (%, negative = inhibition) at 10uM” value turned out to be 18.4%.
Consider `Cn1c(=O)c2c(nc(SCC(=O)Nc3ccccc3N3CCCCC3)n2C)n(C)c1=O`, for which the “hERG current change (%, negative = inhibition) at 10uM” value is recorded as -54%.
Consider `Cc1cc(C(=O)N2CCCC(N3CCN(Cc4ccc5c(c4)OCO5)CC3)C2)n[nH]1` (stereo not drawn), for which the “hERG current change (%, negative = inhibition) at 10uM” value is listed as -15.4%.
`Cc1cccc(NC(=O)CN2CCc3cc4c(cc3C2C)OCCCO4)c1` (stereo not drawn): the “hERG current change (%, negative = inhibition) at 10uM” value is recorded as -4.13%.
As to `COc1ccccc1C(=O)NCCC(=O)NCC1CCCO1` (stereo not drawn), the “hERG current change (%, negative = inhibition) at 10uM” value is -11.2%.
For the compound `Cc1ccccc1C(=O)NC1CCN(Cc2nnnn2CCc2ccccc2)CC1`, the “hERG current change (%, negative = inhibition) at 10uM” value is reported as -8.14%.
With `Cc1cccc(C(=O)OCN2C(=O)c3ccccc3C2=O)c1[N+](=O)[O-]`, the “hERG current change (%, negative = inhibition) at 10uM” value amounted to 19.7%.
Take `O=C(/C=C/c1ccco1)NCC1(c2ccccc2)CCCC1`: the “hERG current change (%, negative = inhibition) at 10uM” value is listed as -4.49%.
The figure for `CCOc1ccc(S(=O)(=O)Nc2cccc(Cl)c2)cc1` is 6.4%.
Then `CCOC(=O)C1CCN(C(=O)C2CCN(S(=O)(=O)c3c(C)noc3C)CC2)CC1`, with -12.6%; and `CCOCCCNC(=O)Cn1ncc2c(=O)oc3ccccc3c21`, with -7.38%.
As to `CN(C)CCCn1c(NC(=O)C2CCCCC2)nc2ccccc21`, the “hERG current change (%, negative = inhibition) at 10uM” value is listed as -27.3%.
Turning to `CCOC(=O)[C@@H]1[C@H]2COc3ccc(Br)cc3[C@H]2N2C(=O)N(c3cccc(F)c3)C(=O)[C@]12C`, the “hERG current change (%, negative = inhibition) at 10uM” value is -1.18%.
The figure for `CN(NS(C)(=O)=O)c1c(C#N)c(C(F)(F)F)nn1C` is 11.4%; for `CC(CCc1ccccc1)NC(=O)COC(=O)c1ccc(S(C)(=O)=O)c([N+](=O)[O-])c1` (stereo not drawn) it is -2.97%; for `Br.O=C(CN1C2=NCCN2c2ccccc21)C12CC3CC(CC(C3)C1)C2` it is -72.7%.
Turning to `O=S(=O)(NCCN1CCOCC1)c1ccc2c(c1)OCCO2`, the “hERG current change (%, negative = inhibition) at 10uM” value is 20.9%.
With `O=C(CSC1c2ccccc2C(=O)N1c1ccccc1)N1CCOCC1` (stereo not drawn), the “hERG current change (%, negative = inhibition) at 10uM” value stood at 0.586%.
The figure for `COc1ccc(C(=O)Nc2c(F)c(F)c(F)c(F)c2F)c(OC)c1` is 8.63%; for `Cc1ccc(CN2CCN(C(=O)CCc3ccccc3)CC2)cc1` it is -19.1%; for `CC1CCN(S(=O)(=O)c2ccc3[nH]c(=O)cc(C(=O)O)c3c2)CC1` it is 0.2%.
Then `CC(=O)Nc1nc2c(ccc3ccccc32)s1`, with 4.92%.
As to `Cn1c(CNC(=O)CCNC(=O)c2ccccc2F)cc(=O)n(C)c1=O`, the “hERG current change (%, negative = inhibition) at 10uM” value amounted to 17.3%.
For the compound `COc1ccc(CC(=O)Nc2cc(C)ccn2)cc1`, the “hERG current change (%, negative = inhibition) at 10uM” value came to 6.87%.
Take `O=C(O)Cn1c(=O)c2c3c(sc2n(Cc2ccccc2F)c1=O)CCCC3`: the “hERG current change (%, negative = inhibition) at 10uM” value is reported as 9.75%.
The figure for `CSc1nnc(-c2sc3cc(C(F)(F)F)cnc3c2-c2cccnc2)n1C` is -26.1%; for `CCc1nnc(SCC(=O)Nc2ccc(C(C)=O)cc2)nc1CC` it is -8.24%.
For the compound `COC(=O)CCC(=O)Nc1ccc(OC)cc1`, the “hERG current change (%, negative = inhibition) at 10uM” value is reported as 4.9%.
Consider `O=C(Nc1cnccn1)c1cccs1`, for which the “hERG current change (%, negative = inhibition) at 10uM” value is -13.7%.
`COc1ccc(/C=C/C(=O)c2ccc(O)cc2)cc1COc1ccc(F)cc1`: the “hERG current change (%, negative = inhibition) at 10uM” value was 8.81%.
As to `COc1ccc2cc(CCNC(=O)C3CC3)c(=O)[nH]c2c1`, the “hERG current change (%, negative = inhibition) at 10uM” value is given as 11%.
As for `CCOC(=O)CNC(=O)CSc1nnc(Cn2c(=O)sc3ccccc32)n1-c1ccccc1C`, the “hERG current change (%, negative = inhibition) at 10uM” value is listed as -8.65%.
Consider `CCOC(=O)COc1ccc(CCNC(C)=O)cc1`, for which the “hERG current change (%, negative = inhibition) at 10uM” value was determined as 15%.
Take `Cc1ccc(COc2ccc(/C=N/NC(=O)c3ccc(CN4CCOCC4)cc3)cc2)cc1`: the “hERG current change (%, negative = inhibition) at 10uM” value is reported as 9.35%.
For `COc1ccccc1NC(=O)N1CCN(c2cc(-c3ccccc3)nc3ncnn23)CC1`, the “hERG current change (%, negative = inhibition) at 10uM” value was -68.3%.
The figure for `CCC(C)(C)NC(=O)CN(CCc1cccc(C)c1)C(=O)c1csnn1` is 18.1%.
Take `CCCCN(CCNP(=O)(OCC)OCC)CP(=O)(OCC)OCC`: the “hERG current change (%, negative = inhibition) at 10uM” value was determined as 2.18%.
Then `O=C1CCC(C(=O)NC2(C(=O)NC3CCCCC3)CCCCC2)N1` (stereo not drawn), with 11.5%; and `S=c1[nH]nc(CCSCc2ccccc2)n1-c1ccccc1`, with 18.7%; and `COc1ccccc1C(=O)NC(C(=O)NCCc1nc2ccccc2[nH]1)=C(C)C`, with 16.2%.
Regarding `CCOC(CCc1c(C)nc(NC(C)=O)[nH]c1=O)OCC`, the “hERG current change (%, negative = inhibition) at 10uM” value worked out at 19.5%.
As to `COC(=O)C(CCSC)NC(=O)CNC(=O)C1CCCCC1` (stereo not drawn), the “hERG current change (%, negative = inhibition) at 10uM” value is 12.3%.
Take `CN(C(=O)c1ccccc1C(=O)OCC(=O)c1ccc(Br)cc1)c1ccccc1`: the “hERG current change (%, negative = inhibition) at 10uM” value is -16.2%.
For `Cc1cccc(CSc2ncccc2C(=O)O)c1`, the “hERG current change (%, negative = inhibition) at 10uM” value is given as -3.28%.
For `CCOC(=O)c1nn(C23CC4CC(CC(C4)C2)C3)c2c1C(=O)N(c1ccc(C)cc1)C2=O`, the “hERG current change (%, negative = inhibition) at 10uM” value is given as 20.3%.
On to `CC(NCc1ccc(Cl)cc1Cl)C(O)c1ccccc1.Cl` (stereo not drawn), for which the “hERG current change (%, negative = inhibition) at 10uM” value is reported as -26.6%.
As for `COc1ccc(-c2ccc(=O)n(CC(=O)NCC3COCCO3)n2)cc1` (stereo not drawn), the “hERG current change (%, negative = inhibition) at 10uM” value is listed as -3.26%.
For `CCCCOc1ccc(/C=N/NC(=S)Nc2cc(C)ccc2C)cc1`, the “hERG current change (%, negative = inhibition) at 10uM” value is given as 1.18%.
Then `CCN(CC)N=Nc1ccc(C(=O)[O-])cc1.[K+]`, with -3.06%; and `CC1CCCN(C(=O)CN2C(=O)c3ccccc3C2=O)C1` (stereo not drawn), with 7.23%; and `COc1ccc(Nc2ccc(Cl)nn2)cc1`, with 3.11%.
With `COc1cc(/C=C(/C#N)c2nc3ccccc3[nH]2)ccc1OCC(=O)Nc1ccccc1C(C)C`, the “hERG current change (%, negative = inhibition) at 10uM” value is on record as -4.28%.
Turning to `CCOC(=O)CC(NC(=O)Cn1nnc(-c2ccccc2)n1)c1ccc(OC)cc1` (stereo not drawn), the “hERG current change (%, negative = inhibition) at 10uM” value is -28.7%.
With `O=C(O)c1cccc(NC(=S)NC(NC(=O)c2cccc([N+](=O)[O-])c2)C(Cl)(Cl)Cl)c1` (stereo not drawn), the “hERG current change (%, negative = inhibition) at 10uM” value amounted to 12.4%.
